Measurements from the supplement of paper PMC12632987.
In all, about 2,300 sequences were measured (“median log2 fold change of GCK-ALFA target abundance (FLAG IP / Myc IP barcode read proportion)”: median about 0.095, lowest 2% from about -0.47 on). The list shows a part of the results.

B1: LC3A_45_1923 (protein)
chain: MWEATVDLLVPRELAEEALALIRELAAELEERYGPDLKVDLATLEESYEASKDEEDVYFEVKITHPDRDKALDAADELVDRLQEALGGKVAAMISLKEVP
B2: LC3A_17_569 (protein)
chain: SAETEKLYKEAVKALKEAAKFAATIDPEAAAKIKALLKEVEEAYKTLSDLEIAETIAKAMDEVSDILDSLEGKDPENASLLSMEMEGVAIEAESLALKLE
B3: LC3A_147_509 (protein)
chain: YIVEIDIDLLVKNKVEEVKEKFKEIVEELKKKGYEVELEIEEEKIDENTYYVKVKITIKAETKEEAEEAANLTLDLLDKLEEELKEDILGSLISVEITEA
B4: LC3A_28_843 (protein)
chain: SKTEKDIKKALAEAEEAAKKKESKVITINVYKGDTQEEIDAIIKALEEIAEILKDLPNQSIIVNFEEPIDQEHQDAIIDKAEEIEKKYPNITVIIALPEE
B5: LC3A_free_0_2118 (protein)
chain: KKTVVEVVVILDESVDEETAEKIYEELKKKAEELAKENGGEVKSSLSKSDGRYIITIEITFDTEDIDLALEVEDELVKIAEEILKKAGVEATIFSSVYLE
B6: LC3A_102_132 (protein)
chain: SIEEKAKELLEKVLKEIEEFLEEDDSLSEEEKERILELARKATELTIKNTITEEQHGFVDIVAEDEREEALEEIEKISPEVAEKLKKLLEETREELKKFL
B7: LC3A_147_498 (protein)
chain: VKVKIEFENVSEELKKAIEELAKELEKLAKKYKGEILVKVIIDILDKNGGYARIEIEAYVENEEEAKELIDEIIDLVEEFYEKNKDLISAVVVSAEIEEP
B8: LC3A_free_46_2405 (protein)
chain: YVAEIEIDLLADSREKAEAARDAIEAAAREIAAEHGAEIEIESEIEEEPDGTVFVTIKITLRAEDEETLLAAVNDIIDAAEEIAKEHGASIIISYEISKE

The binders below were run against MAP1LC3A, Q9H492 (assay: median log2 fold change of GCK-ALFA target abundance (FLAG IP / Myc IP barcode read proportion) (log2 ratio); each designed protein is fused to an ALFA-tag nanobody in HEK293 cells to bring the named protein to FLAG-tagged glucokinase (GCK); Myc marks an untargeted standard; higher = target protein stabilised (more abundant)). Conditions: target protein: 3xFLAG-MCP-GCK-ALFA reporter; HEK293 landing pad (RPLP).
Summary of the method: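 The readout is target abundance, the per-binder median log2 ratio of FLAG to Myc barcode read proportions. It came from HEK293 landing-pad cells carrying a recombined ALFA-nanobody-fused binder library, induced with 2 μg mL^−1 doxycycline and transfected with a plasmid for a FLAG-tagged target and a Myc-tagged standard. After 48 h, lysates were immunoprecipitated with anti-FLAG and anti-Myc, and circular RNA barcodes were reverse transcribed, amplified and sequenced. Each barcode needed a proportion of at least 10^−7 in both replicates and each binder at least 3 barcodes per replicate, a pseudocount of 10^−6 was added, and the replicates were pooled.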

| Binder | median log2 fold change |
| --- | --- |
| B1 | -0.0824 |
| B2 | -0.0472 |
| B3 | -0.0549 |
| B4 | 0.382 |
| B5 | -0.193 |
| B6 | -0.0891 |
| B7 | 0.165 |
| B8 | -0.113 |
